About 7,500 (2.1%) of roughly 360,000 compounds were called active. The shares of active, inactive and inconclusive entries below differ from those in the screen. Calls follow the shape of the dose curve; as a rule, active = well fitted cell-killing curve with a large enough effect; inconclusive = small, poorly fitted or top-dose-only effect, or effect the other way, or another doubt; inactive = no such curve, though single readings can be large or run the other way. No potency is given beside an inconclusive call; the fits are too rough.
Assay: qHTS for induction of synthetic lethality in tumor cells producing 2HG: qHTS for the HT-1080-IDH1KD cell line;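 as to activity, negative = toxicity: 0% = DMSO wells and -100% = cell-free medium wells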
Details: HT-1080 IDH1 knockdown viability, ATP luminescence, 48 h; activity, negative = toxicity: at 46.1 µM (top of the series) unless noted
Outline: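 Knockdown cells (IDH1KD HT-1080) received compounds 2 h after plating at 750 cells/well and were kept 48 h at 37 °C in 5% FBS RPMI. A CellTiter-Glo luminescence read gave % activity for curve fitting.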
Potency is read from the fitted curve at half-maximal effect; tags tell the direction and shape of the fitted curve.

For `CC(=O)Nc1cc(-c2ccc(N3CCN(C)CC3)cc2)cn2c(-c3ccc(F)cc3)cnc12`, which Potency is on record?
The Potency was active: 23.1 µM.

For `Cc1cccc(C)c1OCCNC(=O)C(=O)NCc1ccco1`, which Potency is on record?
The Potency was active: 2.59 µM.

For `N#CC(Sc1ccccn1)c1ccc(Cl)cc1` (centres undefined), which Potency is on record?
Its Potency is inconclusive [cytotoxic, partial curve].

Which Potency does the source give for `O=C1CCCC/C=C\C[C@H](CC(=O)N(CCO)Cc2ccccc2)C(=O)N2CCC[C@@H]2CO1` here?
The Potency was “inactive”.

With `COCCNC(=O)C1(C)CCCN(CCSc2ccccc2)C1` (centres undefined) as the molecule, how does the Potency read?
Its Potency is inconclusive [rising, single point].

With `CCn1c(CSc2nc3ccccc3s2)nnc1SCC(N)=O` as the molecule, how does the Potency read?
Its Potency is inconclusive [cytotoxic, single point].

With `O=[N+]([O-])c1cccc(C=Nc2cccc3ccccc23)c1O` as the molecule, how does the Potency read?
Its Potency is “inactive”.

For `COc1ccc(Cl)cc1NS(=O)(=O)c1cccc2cccnc12`, which activity, negative = toxicity is on record?
The activity, negative = toxicity was inconclusive: -22.5% [cytotoxic].

Which Potency does the source give for `O=C(OCc1ccccc1)C1CCCN1C(=O)c1ccccc1[N+](=O)[O-]` (centres undefined) here?
Its Potency is inconclusive [cytotoxic, single point].

Which Potency does the source give for `FC(F)(F)c1cc(CCN2C(=S)NC[C@@H]2Cc2ccccc2)cc(C(F)(F)F)c1` here?
The Potency was inconclusive [cytotoxic, single point].

With `O=C(CSc1cn(Cc2cccc(F)c2)c2ccccc12)NCc1ccc(F)cc1` as the molecule, how does the Potency read?
Its Potency is inconclusive [cytotoxic, partial curve].

For `O=C1/C(=C/c2ccc(O)c(O)c2)SC(=S)N1Nc1ccccc1`, which Potency is on record?
The Potency was inconclusive [cytotoxic, single point].

Which Potency does the source give for `O=C(NCCN1CCOCC1)c1ccc(/C=C2\Sc3ccccc3N(Cc3ccc(F)cc3)C2=O)cc1` here?
The Potency was inconclusive [cytotoxic, single point].

With `Cc1ccc(S(=O)(=O)CCSc2nc(C)cc(C)c2C#N)cc1` as the molecule, how does the Potency read?
Its Potency is inconclusive [cytotoxic, single point].

With `COc1cnc(-c2ccccn2)nc1Sc1ccc(C)cc1` as the molecule, how does the Potency read?
Its Potency is inconclusive [cytotoxic, single point].

With `Nc1nc(SCc2ccc(Cl)cc2Cl)nc2nc3c(cc12)CCCC3` as the molecule, how does the Potency read?
The Potency was inconclusive [cytotoxic, single point].

For `NC(N)=N/N=C/c1ccc(Cl)c(Cl)c1`, which Potency is on record?
Its Potency is inconclusive [cytotoxic, single point].

For `CCC(C)NC(=O)CC(NS(=O)(=O)c1ccc(C)cc1)c1ccc(OC)cc1` (centres undefined), which Potency is on record?
Its Potency is “inactive”.

With `CCCN(CCC)CCNC(=O)c1cc2c(-c3ccccc3F)nn(C)c2s1` as the molecule, how does the Potency read?
The Potency was inconclusive [cytotoxic, single point].

Which Potency does the source give for `CC(C)(C)n1nc(-c2ccc(F)cc2)c2c(N)ncnc21` here?
Its Potency is inconclusive [cytotoxic, partial curve].

With `COc1ccccc1N1CCN(C(=S)Nc2ccc3nc(N4CCOCC4)cc(C)c3c2)CC1` as the molecule, how does the Potency read?
Its Potency is inconclusive [cytotoxic, single point].

Which Potency does the source give for `O=C(c1ccc(OC2CCN(Cc3ccc(C(F)(F)F)cc3)CC2)cc1)N1CCCCC1` here?
Its Potency is “inactive”.

For `CC(=O)Nc1cc(-c2cccc(NS(C)(=O)=O)c2)cn2c(-c3ccccc3)cnc12`, which Potency is on record?
The Potency was inconclusive [cytotoxic, single point].

With `CC(C)CN(CC(C)C)C(=O)COn1nnc2ccc(S(=O)(=O)N3CCOCC3)cc21` as the molecule, how does the Potency read?
Its Potency is “inactive”.

With `CCOc1ccccc1NC(=O)CC1Nc2ccccc2NC1=O` (centres undefined) as the molecule, how does the Potency read?
The Potency was inconclusive [cytotoxic, partial curve].

For `CCOC(=O)/C(=N\Nc1ccc(Br)cc1)N1CC(C)OC(C)C1` (centres undefined), which Potency is on record?
Its Potency is inconclusive [cytotoxic, full curve].

With `CN(Cc1ccccc1)CC(O)COc1ccc(CNCc2cc3ccccc3s2)cc1` (centres undefined) as the molecule, how does the Potency read?
The Potency was active: 20.6 µM.

Which Potency does the source give for `COc1ccc(/C=C2\SC(=S)N(CCCC(=O)N3CCN(C)CC3)C2=O)cc1` here?
Its Potency is active: 16.4 µM.

With `Cc1cccc(C(=O)N/N=C/c2ccncc2)c1` as the molecule, how does the Potency read?
The Potency was “inactive”.

Which Potency does the source give for `CCN(CC)CCNC(=O)c1ccc(NC(=O)c2cccc(S(=O)(=O)N3CCc4ccccc43)c2)cc1` here?
Its Potency is inconclusive [cytotoxic, partial curve].

Which Potency does the source give for `COCCN(CC(=O)Nc1cccc(C)c1C)C(=O)c1ccc2ccccc2n1` here?
Its Potency is “inactive”.

Which Potency does the source give for `O=C(NNC(=S)NC1CCCCC1)c1sc2ccccc2c1Cl` here?
Its Potency is inconclusive [cytotoxic, single point].

For `OCCNCc1ccc(OCc2ccc(Cl)cc2Cl)cc1`, which Potency is on record?
Its Potency is active: 20.6 µM.

With `CCCNC(=O)c1cc(C2CCCCN2C(=O)CCCc2ccccc2)on1` (centres undefined) as the molecule, how does the Potency read?
The Potency was inconclusive [rising, single point].

Which Potency does the source give for `COC(=O)C1=C(C)NC(=S)N(C(C)=O)C1c1ccc(OC)c(OC)c1` (centres undefined) here?
Its Potency is inconclusive [cytotoxic, single point].

With `N#C/C(=N\Nc1ccccc1[N+](=O)[O-])C(=N)N1CCCCC1` as the molecule, how does the Potency read?
Its Potency is “inactive”.

Which Potency does the source give for `O=C(NCc1cccnc1)c1cccc(NC(=O)c2ccco2)c1` here?
The Potency was inconclusive [cytotoxic, partial curve].

With `Cc1nc(NCc2ccc(S(N)(=O)=O)cc2)c2c(C)c(C)sc2n1` as the molecule, how does the Potency read?
The Potency was inconclusive [cytotoxic, single point].

For `O=C(Cc1ccccc1)Nc1ccc(C(=O)Nc2ccc(O)cc2)cc1`, which Potency is on record?
Its Potency is inconclusive [cytotoxic, single point].

With `CC(=O)Nc1cc(-c2cccc(C(=O)NCCO)c2)cn2c(-c3cccc(C(F)(F)F)c3)cnc12` as the molecule, how does the Potency read?
The Potency was inconclusive [cytotoxic, single point].

With `C=C1CCC2[C@](C)(CO[C@@H]3O[C@H](CO)[C@@H](O)[C@H](O)[C@H]3O)CCC[C@@]2(C)[C@@H]1CCC1=CCOC1=O` (some centres undefined) as the molecule, how does the Potency read?
Its Potency is “inactive”.

For `CN(C)C/C=C(\c1ccc(Br)cc1)c1cccnc1`, which Potency is on record?
The Potency was inconclusive [cytotoxic, single point].

With `Cc1ccc2nc3c(cc(C(N)=S)c(=N)n3CCCOC(C)C)c(=O)n2c1` as the molecule, how does the Potency read?
The Potency was active: 11.2 µM.

For `CCCCN(CC)CCCNC(=O)c1cc2c(-c3ccc(OC)c(OC)c3)nn(C)c2s1`, which Potency is on record?
Its Potency is inconclusive [cytotoxic, single point].

From PubChem BioAssay AID686971 (National Center for Advancing Translational Sciences (NCATS), 2013)
